According to the supplement of paper PMC10126150:
Values marked as one replicate rest on one cluster of the flow cell; about a third of the high ones do not repeat.

Tested on: ATP
Experiment: switch fluorescence ratio, 500 uM ATP over buffer (Cy3 cluster intensity, sum of 5 cycles each) (fold (ratio)); higher = stronger signal-on switching upon ATP binding; sequences stand for … in TCGTCGGCAGCGTCAGATGTGTATAAGAGACAGTTTTTTTTTTTTTTTTTTTTTTTTT…TC
Conditions: aptamer strand: ATP DNA aptamer (quencher-CACCTGGGGGAGTATTGCGGAGGAAGG + anchor), 100 nM annealed; ATP concentration: 500 uM; one replicate
Method in brief: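 Exposure to 500 uM ATP lasted 15 min at 22 °C before imaging, and a selection-buffer image was taken beforehand, for Cy3-labelled switching-strand clusters on a modified Illumina MiSeq flow-cell annealed to 100 nM quencher-labelled ATP aptamer. Five buffer/ATP cycles were run with NaOH stripping and re-annealing between them. The fluorescence ratio per cluster is summed target-cycle over summed buffer-cycle Cy3 intensity, averaged per switch-domain sequence. Clusters outside 100-1000 RFU were excluded.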

Q: Which switch fluorescence ratio does the source give for ATTCAA here?
A: 0.992

Q: ATTCAAATCT was tested. Which switch fluorescence ratio did it give?
A: 0.983

Q: ATTCAACGC was tested. Which switch fluorescence ratio did it give?
A: 1.09

Q: ATTCACCAAC was tested. Which switch fluorescence ratio did it give?
A: 1.17

Q: With ATTCAGAGAC as the sequence, how does the switch fluorescence ratio read?
A: 1.02

Q: ATTCATAACT was tested. Which switch fluorescence ratio did it give?
A: 1

Q: For ATTCATACAG, which switch fluorescence ratio is on record?
A: 1.04

Q: For ATTCATGACA, which switch fluorescence ratio is on record?
A: 1.06

Q: For ATTCATGTT, which switch fluorescence ratio is on record?
A: 0.942

Q: ATTCCATTTA was tested. Which switch fluorescence ratio did it give?
A: 0.978

Q: ATTCCCACCA was tested. Which switch fluorescence ratio did it give?
A: 1

Q: With ATTCCCCAAG as the sequence, how does the switch fluorescence ratio read?
A: 1.26

Q: ATTCCCCTAC was tested. Which switch fluorescence ratio did it give?
A: 1.15

Q: ATTCCCGCTC was tested. Which switch fluorescence ratio did it give?
A: 1.87

Q: Which switch fluorescence ratio does the source give for ATTCCTCT here?
A: 1.05

Q: Which switch fluorescence ratio does the source give for ATTCCTCTGA here?
A: 1.25

Q: For ATTCCTGTTA, which switch fluorescence ratio is on record?
A: 0.986

Q: How did the switch fluorescence ratio turn out when ATTCCTTCTA was run?
A: 1.02

Q: ATTCGAAGAA was tested. Which switch fluorescence ratio did it give?
A: 0.974

Q: How did the switch fluorescence ratio turn out when ATTCGAGACC was run?
A: 1

Q: With ATTCGATGTT as the sequence, how does the switch fluorescence ratio read?
A: 0.998

Q: For ATTCGGGCGC, which switch fluorescence ratio is on record?
A: 1.05

Q: With ATTCGGTATT as the sequence, how does the switch fluorescence ratio read?
A: 0.967

Q: How did the switch fluorescence ratio turn out when ATTCGTAAGA was run?
A: 0.986

Q: With ATTCGTACC as the sequence, how does the switch fluorescence ratio read?
A: 0.996

Q: For ATTCGTATTC, which switch fluorescence ratio is on record?
A: 1.02

Q: Which switch fluorescence ratio does the source give for ATTCGTCGTG here?
A: 0.992

Q: With ATTCGTGATT as the sequence, how does the switch fluorescence ratio read?
A: 1.03

Q: How did the switch fluorescence ratio turn out when ATTCGTTACG was run?
A: 0.969

Q: ATTCGTTGAG was tested. Which switch fluorescence ratio did it give?
A: 0.977

Q: How did the switch fluorescence ratio turn out when ATTCGTTTGA was run?
A: 1.05

Q: Which switch fluorescence ratio does the source give for ATTCTAAAAA here?
A: 0.949

Q: Which switch fluorescence ratio does the source give for ATTCTAAGCT here?
A: 1.01

Q: Which switch fluorescence ratio does the source give for ATTCTAATTT here?
A: 0.971

Q: How did the switch fluorescence ratio turn out when ATTCTAGGAT was run?
A: 0.945

Q: With ATTCTAGGGT as the sequence, how does the switch fluorescence ratio read?
A: 0.976

Q: ATTCTTAGTG was tested. Which switch fluorescence ratio did it give?
A: 0.952

Q: For ATTCTTGTGG, which switch fluorescence ratio is on record?
A: 1.01

Q: With ATTGAAAGC as the sequence, how does the switch fluorescence ratio read?
A: 0.973

Q: With ATTGAAAGTC as the sequence, how does the switch fluorescence ratio read?
A: 0.994

Q: For ATTGAACTTA, which switch fluorescence ratio is on record?
A: 0.981

Q: For ATTGAAGGCT, which switch fluorescence ratio is on record?
A: 0.989

Q: For ATTGAATAAT, which switch fluorescence ratio is on record?
A: 0.977

Q: With ATTGAATAGT as the sequence, how does the switch fluorescence ratio read?
A: 0.992

Q: How did the switch fluorescence ratio turn out when ATTGACACGT was run?
A: 1.02

Q: How did the switch fluorescence ratio turn out when ATTGACCCAG was run?
A: 1.03

Q: ATTGACCGAA was tested. Which switch fluorescence ratio did it give?
A: 1.05

Q: How did the switch fluorescence ratio turn out when ATTGAGACCC was run?
A: 1.02

Q: For ATTGAGAGTA, which switch fluorescence ratio is on record?
A: 0.99

Q: For ATTGAGCTC, which switch fluorescence ratio is on record?
A: 1.03

Q: For ATTGAGGTCT, which switch fluorescence ratio is on record?
A: 1.01

Q: With ATTGATTATT as the sequence, how does the switch fluorescence ratio read?
A: 0.987

Q: For ATTGCAAATT, which switch fluorescence ratio is on record?
A: 0.963

Q: ATTGCAGGCA was tested. Which switch fluorescence ratio did it give?
A: 0.961

Q: With ATTGCATTCG as the sequence, how does the switch fluorescence ratio read?
A: 1.03

Q: Which switch fluorescence ratio does the source give for ATTGCCAGTG here?
A: 1.01

Q: For ATTGCGACGA, which switch fluorescence ratio is on record?
A: 1.04

Q: How did the switch fluorescence ratio turn out when ATTGCTGTCT was run?
A: 1.05

Q: For ATTGCTTGGC, which switch fluorescence ratio is on record?
A: 0.909

Q: How did the switch fluorescence ratio turn out when ATTGGATTTG was run?
A: 1.01

Q: How did the switch fluorescence ratio turn out when ATTGGGCTTA was run?
A: 1.05

Q: For ATTGGGGC, which switch fluorescence ratio is on record?
A: 1.03

Q: How did the switch fluorescence ratio turn out when ATTGGGGTAC was run?
A: 1.01

Q: Which switch fluorescence ratio does the source give for ATTGTAATAA here?
A: 0.971

Q: ATTGTACTT was tested. Which switch fluorescence ratio did it give?
A: 1.01

Q: ATTGTAGTT was tested. Which switch fluorescence ratio did it give?
A: 0.972

Q: ATTGTCTCAC was tested. Which switch fluorescence ratio did it give?
A: 0.966

Q: For ATTGTCTGGG, which switch fluorescence ratio is on record?
A: 1.02

Q: Which switch fluorescence ratio does the source give for ATTGTGAAGG here?
A: 0.982

Q: For ATTGTGACAC, which switch fluorescence ratio is on record?
A: 0.958

Q: How did the switch fluorescence ratio turn out when ATTGTGCTAT was run?
A: 1.01

Q: ATTGTGGCAG was tested. Which switch fluorescence ratio did it give?
A: 0.989

Q: For ATTGTGGGTG, which switch fluorescence ratio is on record?
A: 1.01

Q: For ATTGTGGTAC, which switch fluorescence ratio is on record?
A: 1.01

Q: How did the switch fluorescence ratio turn out when ATTGTGTGTA was run?
A: 0.941

Q: For ATTGTGTTGT, which switch fluorescence ratio is on record?
A: 0.976

Q: For ATTGTTCACT, which switch fluorescence ratio is on record?
A: 0.949

Q: With ATTGTTCTAT as the sequence, how does the switch fluorescence ratio read?
A: 1.01

Q: For ATTTAAAAAT, which switch fluorescence ratio is on record?
A: 1

Q: For ATTTAAATGC, which switch fluorescence ratio is on record?
A: 1.04

Q: ATTTAACAGC was tested. Which switch fluorescence ratio did it give?
A: 1.02

Q: Which switch fluorescence ratio does the source give for ATTTAATGTT here?
A: 1.03

Q: Which switch fluorescence ratio does the source give for ATTTAATTAG here?
A: 0.972

Q: How did the switch fluorescence ratio turn out when ATTTAATTGA was run?
A: 0.973

Q: With ATTTACATGC as the sequence, how does the switch fluorescence ratio read?
A: 1.03

Q: Which switch fluorescence ratio does the source give for ATTTACGCAT here?
A: 1.26

Q: ATTTACTAA was tested. Which switch fluorescence ratio did it give?
A: 1.04

Q: For ATTTACTTTT, which switch fluorescence ratio is on record?
A: 1.03

Q: How did the switch fluorescence ratio turn out when ATTTAGATCA was run?
A: 0.986

Q: Which switch fluorescence ratio does the source give for ATTTATATGA here?
A: 1

Q: Which switch fluorescence ratio does the source give for ATTTCAGGTG here?
A: 3.59

Q: For ATTTCCATGA, which switch fluorescence ratio is on record?
A: 0.967

Q: With ATTTCCCGTC as the sequence, how does the switch fluorescence ratio read?
A: 0.98

Q: ATTTCGAAGA was tested. Which switch fluorescence ratio did it give?
A: 0.952

Q: Which switch fluorescence ratio does the source give for ATTTCGCACT here?
A: 1.15

Q: For ATTTCGGGTA, which switch fluorescence ratio is on record?
A: 0.99

Q: Which switch fluorescence ratio does the source give for ATTTCTTCT here?
A: 1.04

Q: With ATTTCTTGGA as the sequence, how does the switch fluorescence ratio read?
A: 0.954

Q: With ATTTGAAGTG as the sequence, how does the switch fluorescence ratio read?
A: 0.922

Q: With ATTTGAGAAG as the sequence, how does the switch fluorescence ratio read?
A: 1.01
